Results: the supplement of paper PMC4967469
Lines with a small IC50 respond at low doses; a limit (>, <) means that the fit lies beyond the doses tested. AUC, from the same fit, is the share of area under the viability curve across the 256-fold dose range; it is 1 without any effect and falls as sensitivity rises. For some assays here: Where the top dose is marked as inferred, it was calculated from the reported fits. For some assays here: Drugs with an entry number were screened twice under separate entries, and the two screens often disagree.

Tests used:
Assay in all cases: Viability of human cancer cell lines after 72 h of drug (GDSC screen)
Docetaxel = compound: CC(=O)O[C@@]12CO[C@@H]1C[C@H](O)[C@@]1(C)C(=O)[C@H](O)C3=C(C)[C@@H](OC(=O)[C@H](O)[C@@H](NC(=O)OC(C)(C)C)c4ccccc4)C[C@@](O)([C@@H](OC(=O)c4ccccc4)[C@H]21)C3(C)C [Docetaxel]; conditions: top dose 0.0125 µM
Procedure: (§1)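 Human cancer cell lines in 384-well plates, medium with 10% serum, drug for 72 h over a 256-fold dose range (nine 2-fold or five 4-fold steps up to the top dose). Adherent lines were fixed and stained with the nucleic acid dye Syto60, suspension lines read with resazurin; signal relative to control wells, capped at 0 and 100%. One two-parameter sigmoid per drug and line, fitted in a mixed model over all curves with the slope shared within a line.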

AMG-706 = compound: CC1(C)CNc2cc(NC(=O)c3cccnc3NCc3ccncc3)ccc21 [AMG-706]; conditions: top dose 2 µM; top dose inferred
Procedure: as §1

JNK Inhibitor VIII = compound: CCOc1nc(NC(=O)Cc2cc(OC)ccc2OC)cc(N)c1C#N [JNK Inhibitor VIII]; conditions: top dose 10 µM; top dose inferred
Procedure: as §1

NSC-207895 = compound: CN1CCN(c2ccc([N+](=O)[O-])c3no[n+]([O-])c23)CC1 [NSC-207895]; conditions: top dose 20 µM; top dose inferred
Procedure: as §1

FTI-277 = compound: COC(=O)[C@H](CCSC)NC(=O)c1ccc(NC[C@@H](N)CS)cc1-c1ccccc1 [FTI-277]; conditions: top dose 1.024 µM; top dose inferred
Procedure: as §1

YM155 = compound: COCC[n+]1c2c(n(Cc3cnccn3)c1C)C(=O)c1ccccc1C2=O [YM155]; conditions: top dose 5.12 µM
Procedure: as §1

OSI-906 = compound: C[C@]1(O)C[C@@H](c2nc(-c3ccc4ccc(-c5ccccc5)nc4c3)c3c(N)nccn32)C1 [OSI-906]; conditions: top dose 2.56 µM; top dose inferred
Procedure: as §1

SB-715992 = compound: Cc1ccc(C(=O)N(CCCN)[C@@H](c2nc3cc(Cl)ccc3c(=O)n2Cc2ccccc2)C(C)C)cc1 [SB-715992]; conditions: top dose 0.128 µM; top dose inferred
Procedure: as §1

JQ1 = compound: Cc1sc2c(c1C)C(c1ccc(Cl)cc1)=N[C@@H](CC(=O)OC(C)(C)C)c1nnc(C)n1-2 [JQ1]
Procedure: as §1

Belinostat = compound: O=C(/C=C/c1cccc(S(=O)(=O)Nc2ccccc2)c1)NO [Belinostat]; conditions: top dose 20 µM; top dose inferred
Procedure: as §1

JNJ-26854165 = compound: c1ccc2c(CCNc3ccc(Nc4ccncc4)cc3)c[nH]c2c1 [JNJ-26854165]; conditions: top dose 10 µM
Procedure: as §1

[1] = top dose 2.56 µM, screen: GDSC drug entry 163
[2] = top dose 1 µM, screen: GDSC drug entry 1218, top dose inferred

| Cell Line | AUC (Docetaxel) | IC50 (Docetaxel) [µM] | AUC (AMG-706) | IC50 (AMG-706) [µM] | AUC (JNK Inhibitor VIII) | IC50 (JNK Inhibitor VIII) [µM] | AUC (NSC-207895) | IC50 (NSC-207895) [µM] | AUC (FTI-277) | IC50 (FTI-277) [µM] | AUC (YM155) | IC50 (YM155) [µM] | AUC (OSI-906) | IC50 (OSI-906) [µM] | AUC (SB-715992) | IC50 (SB-715992) [µM] | AUC (JQ1; [1]) | IC50 (JQ1; [1]) [µM] | AUC (Belinostat) | IC50 (Belinostat) [µM] | AUC (JNJ-26854165) | IC50 (JNJ-26854165) [µM] | AUC (JQ1; [2]) | IC50 (JQ1; [2]) [µM] |
| --- | --- | --- | --- | --- | --- | --- | --- | --- | --- | --- | --- | --- | --- | --- | --- | --- | --- | --- | --- | --- | --- | --- | --- | --- |
| OCUM-1 (stomach, adherent) | 0.792 | 0.00635 | 0.954 | > 2 | 0.97 | > 10 | 0.98 | > 20 | 0.985 | > 1.02 | 0.982 | > 5.12 | 0.967 | > 2.56 | 0.983 | > 0.128 | 0.848 | 2.23 | 0.974 | > 20 | 0.964 | > 10 |  |  |
| EN (endometrium, adherent) | 0.827 | 0.0106 | 0.983 | > 2 | 0.974 | > 10 | 0.875 | > 20 | 0.983 | > 1.02 | 0.049 | < 0.02 | 0.976 | > 2.56 | 0.923 | > 0.128 | 0.978 | > 2.56 | 0.452 | 0.895 | 0.907 | > 10 | 0.982 | > 1 |
| KYSE-140 (oesophagus, adherent) | 0.684 | 0.00276 | 0.948 | > 2 | 0.891 | > 10 | 0.983 | > 20 | 0.983 | > 1.02 | 0.983 | > 5.12 | 0.959 | > 2.56 | 0.775 | 0.0574 | 0.754 | 0.964 | 0.98 | > 20 | 0.823 | 6.92 |  |  |
| TMK-1 (stomach, adherent) | 0.949 | > 0.0125 | 0.971 | > 2 | 0.986 | > 10 | 0.982 | > 20 | 0.964 | > 1.02 | 0.244 | 0.0554 | 0.867 | 2.55 | 0.93 | > 0.128 | 0.804 | 1.38 | 0.802 | 10.6 | 0.852 | 8.47 | 0.984 | > 1 |
| SAS (head and neck, adherent) | 0.665 | 0.00238 | 0.976 | > 2 | 0.978 | > 10 | 0.768 | 8.35 | 0.967 | > 1.02 | 0.03 | < 0.02 | 0.893 | > 2.56 | 0.902 | > 0.128 | 0.93 | > 2.56 | 0.38 | 0.56 | 0.854 | 9.38 | 0.955 | > 1 |
| DoTc2-4510 (cervix, adherent) | 0.814 | 0.00634 | 0.984 | > 2 | 0.986 | > 10 | 0.879 | 18.8 | 0.986 | > 1.02 | 0.028 | < 0.02 | 0.906 | > 2.56 | 0.951 | > 0.128 | 0.462 | 0.127 | 0.491 | 1.18 | 0.909 | > 10 | 0.987 | > 1 |
| H2373 (mesothelioma, adherent) | 0.782 | 0.0067 | 0.905 | > 2 | 0.967 | > 10 | 0.916 | > 20 | 0.963 | > 1.02 | 0.039 | < 0.02 | 0.827 | 2.12 | 0.983 | > 0.128 | 0.874 | > 2.56 | 0.477 | 1.07 | 0.911 | > 10 | 0.975 | > 1 |
| KYSE-220 (oesophagus, adherent) | 0.567 | 0.00121 | 0.978 | > 2 | 0.981 | > 10 | 0.878 | > 20 | 0.981 | > 1.02 | 0.034 | < 0.02 | 0.912 | > 2.56 | 0.931 | > 0.128 | 0.648 | 0.421 | 0.559 | 1.83 | 0.785 | 4.53 | 0.984 | > 1 |
| Hs-578-T (breast, adherent) | 0.728 | 0.00364 | 0.944 | > 2 | 0.986 | > 10 | 0.987 | > 20 | 0.987 | > 1.02 | 0.732 | 1.54 | 0.976 | > 2.56 | 0.983 | > 0.128 | 0.904 | > 2.56 | 0.734 | 6.09 | 0.885 | > 10 | 0.981 | > 1 |
| H3118 (head and neck, adherent) | 0.707 | 0.0032 | 0.981 | > 2 | 0.971 | > 10 | 0.976 | > 20 | 0.929 | > 1.02 | 0.058 | < 0.02 | 0.717 | 0.701 | 0.714 | 0.0343 | 0.584 | 0.279 | 0.271 | 0.259 | 0.859 | 9.61 | 0.947 | > 1 |
| WM793B (melanoma, adherent) | 0.753 | 0.00457 | 0.984 | > 2 | 0.983 | > 10 | 0.981 | > 20 | 0.895 | > 1.02 | 0.107 | < 0.02 | 0.968 | > 2.56 | 0.901 | > 0.128 | 0.523 | 0.187 | 0.549 | 1.73 | 0.851 | 8.96 | 0.982 | > 1 |
